# Source: the supplement of paper PMC12645437, “Orthogonal IMiD-Degron Pairs Induce Selective Protein Degradation in Cells” (ACS Chemical Biology, 2025)
# Some of the results follow.
# Target: no compound (DMSO)
# Test: log2 fold change of degron read counts, EGFP-low vs EGFP+ sorted cells; higher = lower degron-EGFP level without compound (poor expression or instability)
# Conditions: compound: DMSO control; 18 h
# 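Further: jurkat cells carrying a lentiviral library of mutant zinc finger degrons fused to EGFP plus mCherry, mCherry+ cells FACS sorted, degron abundance counted by next-generation sequencing.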
row,Sequence,log2 fold change of degron read counts
1,FACDQCGAIFTQKGNLLRHIKL,-1.59
2,FYCEQCGAWFTQKGNLLRHIKL,0.264
3,FHCEICGRDFTQKGNLLRHIKL,-1.72
4,FTCPQCGASFTQKGNLLRHIKL,-0.943
5,FDCPICGHMFTQKGNLLRHIKL,-1.04
6,FHCNQCGHSFTQKGNLLRHIKL,-0.651
7,FNCPVCGAAFTQKGNLLRHIKL,-0.728
8,FDCEICGRKFTQKGNLLRHIKL,-1.52
9,FDCDICGAQFTQKGNLLRHIKL,-2.05
10,FACPICGRDFTQKGNLLRHIKL,-0.334
11,FNCEICGHKFTQKGNLLRHIKL,-1.23
12,FMCSVCGHYFTQKGNLLRHIKL,-0.313
13,FACEICGHPFTQKGNLLRHIKL,-0.597
14,LYCPICGFYCTQKGNLLRHIKL,1.69
15,LQCEICGFVCTQKGNLLRHIKL,-0.89
16,FICNQCGRFFTQKGNLLRHIKL,0.438

row,Sequence,log2 fold change of degron read counts
1,FVCNQCGRQFTQKGNLLRHIKL,-0.806
2,LVCEICGFLCTQKGNLLRHIKL,0.0415
3,FCCEICGHWFTQKGNLLRHIKL,0.0287
4,FRCDVCGAEFTQKGNLLRHIKL,-2.61
5,FACEICGHLFTQKGNLLRHIKL,-0.954
6,FDCPICGAWFTQKGNLLRHIKL,-0.0354
7,FYCNICGATFTQKGNLLRHIKL,-0.16
8,FLCPVCGADFTQKGNLLRHIKL,-1.05
9,FACPICGHPFTQKGNLLRHIKL,0.457
10,FMCDICGAGFTQKGNLLRHIKL,-1.24
11,FMCEVCGATFTQKGNLLRHIKL,-1.76
12,FACDQCGAQFTQKGNLLRHIKL,-2
13,LVCPICGFQCTQKGNLLRHIKL,0.357
14,FECPICGRKFTQKGNLLRHIKL,-0.352
15,LSCNQCGFICTQKGNLLRHIKL,0.885
16,FVCNQCGHIFTQKGNLLRHIKL,0.0579
